The labels stand for the following.
B1: UAAGUCA (DNA:RNA)
RNA: GGGAGACCGGAAUUCAGAUUGUCCUAAGUCAUUAAAUCCCGUCGUAGCCACCA
DNA 1: CAATCTGAATTCCGGTCTCCC
DNA 2: TGGTGGCTACGACGGGATT
B2: GUGUAAA (DNA:RNA)
RNA: B1 RNA with U25G, A26U, A27G, G28U, U29A, C30A
DNA 1: CAATCTGAATTCCGGTCTCCC
DNA 2: TGGTGGCTACGACGGGATT
B3: UCGGGAG (DNA:RNA)
RNA: B1 RNA with A26C, A27G, U29G, C30A, A31G
DNA 1: CAATCTGAATTCCGGTCTCCC
DNA 2: TGGTGGCTACGACGGGATT
B4: GUAUCUC (DNA:RNA)
RNA: B1 RNA with U25G, A26U, G28U, U29C, C30U, A31C
DNA 1: CAATCTGAATTCCGGTCTCCC
DNA 2: TGGTGGCTACGACGGGATT
B5: AUUCAUA (DNA:RNA)
RNA: B1 RNA with U25A, A26U, A27U, G28C, U29A, C30U
DNA 1: CAATCTGAATTCCGGTCTCCC
DNA 2: TGGTGGCTACGACGGGATT
B6: UAAAGAC (DNA:RNA)
RNA: B1 RNA with G28A, U29G, C30A, A31C
DNA 1: CAATCTGAATTCCGGTCTCCC
DNA 2: TGGTGGCTACGACGGGATT
B7: AUAAUAA (DNA:RNA)
RNA: B1 RNA with U25A, A26U, G28A, C30A
DNA 1: CAATCTGAATTCCGGTCTCCC
DNA 2: TGGTGGCTACGACGGGATT
B8: UCACCUA (DNA:RNA)
RNA: B1 RNA with A26C, G28C, U29C, C30U
DNA 1: CAATCTGAATTCCGGTCTCCC
DNA 2: TGGTGGCTACGACGGGATT
B9: ACAGCAU (DNA:RNA)
RNA: B1 RNA with U25A, A26C, U29C, C30A, A31U
DNA 1: CAATCTGAATTCCGGTCTCCC
DNA 2: TGGTGGCTACGACGGGATT
B10: GCCAAGU (DNA:RNA)
RNA: GGGAGACCGGAAUUCAGAUUGUCCGCCAAGUUUAAAUCCCGUCGUAGCCACCA
DNA 1: CAATCTGAATTCCGGTCTCCC
DNA 2: TGGTGGCTACGACGGGATT
B11: UUUACCC (DNA:RNA)
RNA: B1 RNA with A26U, A27U, G28A, U29C, A31C
DNA 1: CAATCTGAATTCCGGTCTCCC
DNA 2: TGGTGGCTACGACGGGATT
B12: CUUGCCA (DNA:RNA)
RNA: B1 RNA with U25C, A26U, A27U, U29C
DNA 1: CAATCTGAATTCCGGTCTCCC
DNA 2: TGGTGGCTACGACGGGATT
B13: GAACGGU (DNA:RNA)
RNA: B10 RNA with C26A, C27A, A28C, A29G
DNA 1: CAATCTGAATTCCGGTCTCCC
DNA 2: TGGTGGCTACGACGGGATT
B14: AAGUAGU (DNA:RNA)
RNA: B10 RNA with G25A, C26A, C27G, A28U
DNA 1: CAATCTGAATTCCGGTCTCCC
DNA 2: TGGTGGCTACGACGGGATT
B15: GCCAUUC (DNA:RNA)
RNA: B10 RNA with A29U, G30U, U31C
DNA 1: CAATCTGAATTCCGGTCTCCC
DNA 2: TGGTGGCTACGACGGGATT
B16: GAGAUGG (DNA:RNA)
RNA: B10 RNA with C26A, C27G, A29U, U31G
DNA 1: CAATCTGAATTCCGGTCTCCC
DNA 2: TGGTGGCTACGACGGGATT
B17: UUGCGGU (DNA:RNA)
RNA: B10 RNA with G25U, C26U, C27G, A28C, A29G
DNA 1: CAATCTGAATTCCGGTCTCCC
DNA 2: TGGTGGCTACGACGGGATT
B18: AUUUAAG (DNA:RNA)
RNA: B10 RNA with G25A, C26U, C27U, A28U, G30A, U31G
DNA 1: CAATCTGAATTCCGGTCTCCC
DNA 2: TGGTGGCTACGACGGGATT
B19: CGUAUAC (DNA:RNA)
RNA: B10 RNA with G25C, C26G, C27U, A29U, G30A, U31C
DNA 1: CAATCTGAATTCCGGTCTCCC
DNA 2: TGGTGGCTACGACGGGATT
B20: ACAUCAG (DNA:RNA)
RNA: B10 RNA with G25A, C27A, A28U, A29C, G30A, U31G
DNA 1: CAATCTGAATTCCGGTCTCCC
DNA 2: TGGTGGCTACGACGGGATT

Substitutions are numbered along the chain they refer to; changes in the protein carry UniProt numbers. The list shows a part of the results.

For this assay, the target named is T1, RBFOX1 RRM RbFoxmut (Fox-RRM*) (Homo sapiens, UniProt Q9NWB1 109-208, R118D;E147R;N151S;E152T).
T1 sequence: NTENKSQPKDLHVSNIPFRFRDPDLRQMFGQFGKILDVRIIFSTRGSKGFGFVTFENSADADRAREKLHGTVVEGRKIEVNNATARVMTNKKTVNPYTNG
The experiment in a line: EMSA; HiTS-Eq, 1 nM pool, 10 min; buffer printed only for the single-RNA assays: 10 mM Tris pH 7.5, 150 mM NaCl, 3.4 mM EDTA, 0.001% NP-40, 30 C. The following applies: tags: His6 N-terminal (pET28a); label: 5' 32P. In short, it runs like this: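 Purified wild-type or mutant RbFox RRM at increasing concentrations was equilibrated with 1 nM of 5′-radiolabelled RNA carrying 7 randomized nucleotides for 10 min in 50 µL. Unbound RNA was separated by 8% native PAGE and sequenced. Relative association constants came from read-count changes of each RNA species compared with the control reaction, normalised to the cognate motif.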
B1: the binding signal is 0.0824 KA relative to UGCAUGU. Regarding B2, the binding signal is 0.117 KA relative to UGCAUGU. As for B3, the binding signal was 0.138 KA relative to UGCAUGU.

On to B4, for which the binding signal is 0.0751 KA relative to UGCAUGU. The same measure for B5: 0.156 KA relative to UGCAUGU; for B6: 0.07 KA relative to UGCAUGU.

With B7, the binding signal was 0.124 KA relative to UGCAUGU.

Turning to B8, the binding signal was 0.105 KA relative to UGCAUGU.

For the molecule B9, the binding signal was 0.101 KA relative to UGCAUGU. To B10 belongs 0.0855 KA relative to UGCAUGU; to B11, 0.0555 KA relative to UGCAUGU. To B12 belongs 0.0976 KA relative to UGCAUGU; to B13, 0.199 KA relative to UGCAUGU; to B14, 0.136 KA relative to UGCAUGU.

As for B15, the binding signal is 0.0507 KA relative to UGCAUGU. Take B16: the binding signal is 0.104 KA relative to UGCAUGU.

For the molecule B17, the binding signal was 0.093 KA relative to UGCAUGU. The same measure for B18: 0.149 KA relative to UGCAUGU; for B19: 0.121 KA relative to UGCAUGU; for B20: 0.118 KA relative to UGCAUGU.

The values above are taken from paper PMC9911399, “Two distinct binding modes provide the RNA-binding protein RbFox with extraordinary sequence specificity”.
